Lines with a small IC50 respond at low doses; a fit beyond the top or the lowest dose is shown as a bound at that dose. AUC, from the same fit, is the share of area under the viability curve across the 256-fold dose range; values near 1 show little effect.
Compound: FC(F)c1nc2ccccc2n1-c1nc(N2CCOCC2)nc(N2CCOCC2)n1 [ZSTK474]
Experiment: Viability of human cancer cell lines after 72 h of drug (GDSC screen)
Description: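 Human cancer cell lines in 384-well plates, medium with 10% serum, drug for 72 h over a 256-fold dose range (nine 2-fold or five 4-fold steps up to the top dose). Adherent lines were fixed and stained with the nucleic acid dye Syto60, suspension lines read with resazurin; signal relative to control wells, capped at 0 and 100%. One two-parameter sigmoid per drug and line, fitted in a mixed model over all curves with the slope shared within a line.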

H-EMC-SS (chondrosarcoma, adherent, top dose 5.12 µM)
AUC: 0.785 | IC50: 2900 nM

HA7-RCC (kidney, adherent, top dose 5.12 µM)
AUC: 0.726 | IC50: 1520 nM

HAL-01 (lymphoblastic leukaemia, suspension, top dose 5.12 µM)
AUC: 0.104 | IC50: 20.3 nM

HARA (lung squamous cell carcinoma, adherent, top dose 5.12 µM)
AUC: 0.631 | IC50: 786 nM

HC-1 (hairy cell leukaemia, suspension, top dose 5.12 µM)
AUC: 0.506 | IC50: 332 nM

HCC38 (breast, adherent, top dose 5.12 µM)
AUC: 0.852 | IC50: 4450 nM

HCC70 (breast, adherent, top dose 5.12 µM)
AUC: 0.66 | IC50: 882 nM

HCC202 (breast, adherent, top dose 5.12 µM)
AUC: 0.578 | IC50: 569 nM

HCC1143 (breast, adherent, top dose 5.12 µM)
AUC: 0.781 | IC50: 3070 nM

HCC1187 (breast, suspension, top dose 5.12 µM)
AUC: 0.586 | IC50: 545 nM

HCC1395 (breast, adherent, top dose 5.12 µM)
AUC: 0.943 | IC50: > 5120 nM

HCC1419 (breast, adherent, top dose 5.12 µM)
AUC: 0.754 | IC50: 2410 nM

HCC1428 (breast, adherent, top dose 5.12 µM)
AUC: 0.946 | IC50: > 5120 nM

HCC1500 (breast, adherent, top dose 10.24 µM)
AUC: 0.515 | IC50: 703 nM

HCC1569 (breast, adherent, top dose 5.12 µM)
AUC: 0.584 | IC50: 588 nM

HCC1599 (breast, suspension, top dose 5.12 µM)
AUC: 0.669 | IC50: 1020 nM

HCC1806 (breast, adherent, top dose 5.12 µM)
AUC: 0.911 | IC50: > 5120 nM

HCC1937 (breast, adherent, top dose 5.12 µM)
AUC: 0.793

HCC1954 (breast, adherent, top dose 5.12 µM)
AUC: 0.596 | IC50: 616 nM

HCC2157 (breast, suspension, top dose 5.12 µM)
AUC: 0.851 | IC50: 4240 nM

HCC2218 (breast, suspension, top dose 5.12 µM)
AUC: 0.692 | IC50: 1280 nM

HCC2998 (large intestine, adherent, top dose 5.12 µM)
AUC: 0.908 | IC50: > 5120 nM

HCC-15 (lung squamous cell carcinoma, adherent, top dose 5.12 µM)
AUC: 0.905 | IC50: > 5120 nM

HCC-33 (small cell lung carcinoma, adherent, top dose 5.12 µM)
AUC: 0.904 | IC50: > 5120 nM

HCC-44 (lung adenocarcinoma, adherent, top dose 5.12 µM)
AUC: 0.863 | IC50: 4250 nM

HCC-56 (large intestine, adherent, top dose 5.12 µM)
AUC: 0.846 | IC50: 3860 nM

HCC-78 (lung adenocarcinoma, adherent, top dose 5.12 µM)
AUC: 0.609 | IC50: 671 nM

HCC-827 (lung adenocarcinoma, adherent, top dose 5.12 µM)
AUC: 0.752 | IC50: 1930 nM

HCE-4 (oesophagus, adherent, top dose 5.12 µM)
AUC: 0.928 | IC50: > 5120 nM

HCT-15 (large intestine, adherent, top dose 5.12 µM)
AUC: 0.792 | IC50: 2470 nM

HCT-116 (large intestine, adherent, top dose 5.12 µM)
AUC: 0.855 | IC50: 3760 nM

HD-MY-Z (Hodgkin lymphoma, adherent, top dose 5.12 µM)
AUC: 0.727 | IC50: 1420 nM

HDLM-2 (Hodgkin lymphoma, suspension, top dose 5.12 µM)
AUC: 0.848 | IC50: 3700 nM

HDQ-P1 (breast, adherent, top dose 5.12 µM)
AUC: 0.837 | IC50: 4400 nM

HEC-1 (endometrium, adherent, top dose 5.12 µM)
AUC: 0.941 | IC50: > 5120 nM

HEL (acute myeloid leukaemia, semi-adherent, top dose 5.12 µM)
AUC: 0.761 | IC50: 1540 nM

HGC-27 (stomach, adherent, top dose 5.12 µM)
AUC: 0.557 | IC50: 445 nM

HH (T-cell leukaemia, suspension, top dose 5.12 µM)
AUC: 0.262 | IC50: 52.4 nM

HL-60 (acute myeloid leukaemia, suspension, top dose 5.12 µM)
AUC: 0.527 | IC50: 377 nM

HLE (liver, adherent, top dose 5.12 µM)
AUC: 0.899 | IC50: > 5120 nM

HMV-II (melanoma, adherent, top dose 5.12 µM)
AUC: 0.888 | IC50: > 5120 nM

HN (head and neck, adherent, top dose 5.12 µM)
AUC: 0.967 | IC50: > 5120 nM

HO-1-N-1 (head and neck, adherent, top dose 5.12 µM)
AUC: 0.93 | IC50: > 5120 nM

HO-1-u-1 (head and neck, adherent, top dose 5.12 µM)
AUC: 0.928 | IC50: > 5120 nM

HOP-62 (lung adenocarcinoma, adherent, top dose 5.12 µM)
AUC: 0.865 | IC50: 4500 nM

HOP-92 (large cell lung carcinoma, adherent, top dose 5.12 µM)
AUC: 0.947 | IC50: > 5120 nM

HOS (osteosarcoma, adherent, top dose 5.12 µM)
AUC: 0.95 | IC50: > 5120 nM

HPAC (pancreas, adherent, top dose 5.12 µM)
AUC: 0.786 | IC50: 3250 nM

HPAF-II (pancreas, adherent, top dose 5.12 µM)
AUC: 0.642 | IC50: 895 nM

HSC-2 (head and neck, adherent, top dose 5.12 µM)
AUC: 0.883 | IC50: 4750 nM

HSC-3 (head and neck, adherent, top dose 5.12 µM)
AUC: 0.948 | IC50: > 5120 nM

HSC-4 (head and neck, adherent, top dose 5.12 µM)
AUC: 0.945 | IC50: > 5120 nM

HSC-39 (stomach, suspension, top dose 5.12 µM)
AUC: 0.893 | IC50: 4600 nM

HT55 (large intestine, adherent, top dose 5.12 µM)
AUC: 0.99 | IC50: > 5120 nM

HT (B-cell lymphoma, suspension, top dose 5.12 µM)
AUC: 0.605 | IC50: 605 nM

HT-3 (cervix, adherent, top dose 5.12 µM)
AUC: 0.933 | IC50: > 5120 nM

HT-29 (large intestine, adherent, top dose 5.12 µM)
AUC: 0.795 | IC50: 2380 nM

HT-115 (large intestine, adherent, top dose 5.12 µM)
AUC: 0.981 | IC50: > 5120 nM

HT-144 (melanoma, adherent, top dose 5.12 µM)
AUC: 0.959 | IC50: > 5120 nM

HT-1080 (fibrosarcoma, adherent, top dose 5.12 µM)
AUC: 0.95 | IC50: > 5120 nM

HT-1197 (bladder, adherent, top dose 5.12 µM)
AUC: 0.92 | IC50: > 5120 nM

HT-1376 (bladder, adherent, top dose 5.12 µM)
AUC: 0.973 | IC50: > 5120 nM

HTC-C3 (thyroid, adherent, top dose 5.12 µM)
AUC: 0.698 | IC50: 1250 nM

HUTU-80 (digestive system, adherent, top dose 5.12 µM)
AUC: 0.545 | IC50: 414 nM

HeLa (cervix, adherent, top dose 5.12 µM)
AUC: 0.948 | IC50: > 5120 nM

Hep 3B2_1-7 (liver, adherent, top dose 5.12 µM)
AUC: 0.909 | IC50: > 5120 nM

Hey (ovary, adherent, top dose 5.12 µM)
AUC: 0.829 | IC50: 2950 nM

Hs633T (fibrosarcoma, adherent, top dose 5.12 µM)
AUC: 0.874 | IC50: 3490 nM

Hs683 (glioma, adherent, top dose 5.12 µM)
AUC: 0.854 | IC50: 4120 nM

Hs746T (stomach, adherent, top dose 5.12 µM)
AUC: 0.525 | IC50: 383 nM

Hs766T (pancreas, adherent, top dose 5.12 µM)
AUC: 0.886 | IC50: > 5120 nM

Hs939-T (melanoma, adherent, top dose 5.12 µM)
AUC: 0.962 | IC50: > 5120 nM

Hs940-T (melanoma, adherent, top dose 5.12 µM)
AUC: 0.899 | IC50: > 5120 nM

Hs-445 (Hodgkin lymphoma, suspension, top dose 5.12 µM)
AUC: 0.392 | IC50: 166 nM

Hs-578-T (breast, adherent, top dose 5.12 µM)
AUC: 0.987 | IC50: > 5120 nM

HuCCT1 (biliary tract, adherent, top dose 5.12 µM)
AUC: 0.57 | IC50: 510 nM

HuH-7 (liver, adherent, top dose 5.12 µM)
AUC: 0.826 | IC50: 3100 nM

HuO9 (osteosarcoma, adherent, top dose 5.12 µM)
AUC: 0.554 | IC50: 457 nM

HuO-3N1 (osteosarcoma, adherent, top dose 5.12 µM)
AUC: 0.819 | IC50: 4210 nM

HuP-T3 (pancreas, adherent, top dose 5.12 µM)
AUC: 0.732 | IC50: 1730 nM

HuP-T4 (pancreas, adherent, top dose 5.12 µM)
AUC: 0.728 | IC50: 1490 nM
